Measured values published in the supplement of paper PMC5499739.
Over roughly 16,000 sequences, “Z-score” has its median near -0.37; the highest 2% begin near 3.1. Some of the results follow.

tested on: RBM10 RRM1-ZnF-RRM2 (GST-tagged construct); assay: RNAcompete 7-mer binding Z-score; higher = stronger binding preference
Method in brief: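 Each heptamer motif was given a one-sided Z-score for enrichment across the probes that contained it. GST-tagged RBM10 constructs (20 pmol) were combined with 1.5 nmol of a designed pool of 241 399 RNAs of up to 41 nt, transcribed from microarray-derived DNA templates. Binding took place in 1 ml Hepes pH 7.8 buffer containing KCl, NaCl, glycerol, DTT, BSA and glutathione Sepharose beads for 30 min at 4°C. After four 2-min washes at 4°C, bound RNA was identified by microarray hybridisation.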

Sequence | RNAcompete 7-mer binding Z-score
CAUUAUC | -0.737
AUAGUGA | 0.669
CACGCCC | -0.715
AUCCAGU | -0.398
CCCGUGU | -0.406
UGGCUGC | -0.027
CCAAACG | -0.293
UAGUACA | 0.0459
GUCGUUU | -0.067
GCAGAAA | 0.45
GACUGGC | -0.253
UUCAUAG | -0.333
GAGUUUU | -0.103
AACCGGU | 0.177
UGAUCGA | -0.246
UUUAGGC | -0.278
AACUUUC | -0.81
CUAUGAG | -0.169
GGGGCAA | 2.84
CCUACCU | -0.857
UAGCUCC | -0.694
UGUACGC | -0.282
CUCCGCG | -0.628

Sequence | RNAcompete 7-mer binding Z-score
UCCCCUG | -0.435
AAGGCUG | 0.701
UAACCGG | -0.0197
CGAAUUA | -0.362
UCUGUAG | -0.431
UGAAGCC | -0.562
AUUAAAC | -0.664
AGUGCCA | -0.107
GACCUAU | -0.959
ACUUGGA | -0.0233
CUCAUUG | -0.712
AAAAUUC | -0.628
UGGUGCC | 0.232
GUGUCGA | 0.173
GUCGCUU | -0.555
CCACCGC | -0.73
GGAAAAC | 1.44
ACCAAGA | -0.413
UGCUUGU | -0.857
GCAUGGU | 0.807
UCACACU | -0.759
CCCUGUG | -0.471
ACAGGAU | 1.51

Sequence | RNAcompete 7-mer binding Z-score
UGACCAG | 0.0969
GCUGGCA | 0.0896
CAAAUAA | -0.5
CUGUCCC | -0.825
ACACCUC | -0.759
GCAAGGG | 3.28
CAAAGGU | 1.62
GACAACC | -0.5
CCAGUCG | -0.439
GUGCCUA | -0.366
CUUAAAU | -0.77
AUACGAC | -0.286
UUCUGCA | -0.89
UUUAGUA | -0.562
UGUGAUC | -0.482
CCUCCUG | -0.912
CUUACUU | -0.894
CAAUAUU | -0.519
UGCCGAG | -0.213
CUAGGUG | 0.745
CCUUGUA | -0.795
CUAUGGG | 1.08
ACAUGGC | 0.614

Sequence | RNAcompete 7-mer binding Z-score
CUGUGCU | -0.777
UACCAAU | -0.446
UGAUGAG | 0.508
CUAGGGG | 1.97
AUCGCUC | -0.759
GGCCCCG | -0.286
UGAAUGG | 2.22
GGAAGCG | 2.78
CGUAGGU | 1.23
UCUCUUU | -0.799
UAGAGAU | 0.33
UGCAUGU | -0.227
CAGGGGU | 2.91
AGCCCAG | -0.453
GACUAAU | -0.442
AUAGUAC | -0.195
UAGAGUU | -0.0306
CGGUAUG | 0.683
GACCCGA | -0.657
UCACGGU | -0.286
UGCCGGA | -0.0707
GAUCUUA | -0.661
GAUCCGG | 0.0386

Sequence | RNAcompete 7-mer binding Z-score
CCGAUGG | 0.516
CGGAUUG | 0.825
GCCAGAG | 0.319
GGACCUA | -0.151
UCCAGGC | -0.581
UGCUACA | -0.435
ACAUGUG | 0.334
UCACUGG | -0.00148
AUACUGG | 0.213
GCCUCCG | -0.668
AGGGAGG | 3.18
GUGUGUG | 1.02
AGAGGCU | -0.369
GCGGCAU | 0.428
UACAACA | 0.00944
UAAGAUC | -0.409
UGCAGGA | 1.02
CAGGACU | 0.45
GUAGGUG | 3.25
GACACGG | 1.16
CGAAAAU | -0.475
AUCUCGA | -0.726
ACUGGGA | 2.1

Sequence | RNAcompete 7-mer binding Z-score
GCGGAAC | 1.09
AUUGGAA | 1.15
AAGCAGA | 0.672
UCGUGCC | -0.653
CAGUCCU | -0.967
AUGUUAC | -0.468
GUAAGUG | 1.23
CAUUCCC | -0.701
CGUUGAA | -0.235
UGAGACA | 0.366
CUAUCGU | -0.646
AAUGCAG | 0.279
AAAUGAG | 0.803
GAUGACU | -0.34
AUGACCG | -0.355
UGUUUAC | -0.661
UGGUUAG | 1.94
UGACCCG | -0.464
CCCCGUG | 0.0859
GAGCCAC | -0.606
CCCACAU | -0.77
AACCCUC | -0.883
CUCUCGG | -0.653

Sequence | RNAcompete 7-mer binding Z-score
AUCGGGU | 1.95
GUCAUUA | -0.187
AGUGACA | 0.501
AUAUCAU | -0.486
UGAAAGU | 0.334
GACUGGU | 0.454
UGUUCAG | -0.446
CCGCGGU | 0.0714
GUUGCUA | -0.173
CACAUGU | -0.322
GGUCGGU | 1.55
CUUCGGU | -0.551
GGGCCUU | -0.078
AAACGCC | -0.785
UUCUGAU | -0.69
ACUGUUG | -0.515
CGGUUUU | -0.256
CCUACAC | -0.952
UUAGUGA | 0.217
UACUGUC | -0.81
AUUAGCA | 0.141
GCGAUGC | 0.45
CGACCUC | -0.912

Sequence | RNAcompete 7-mer binding Z-score
CAACAGG | 1.32
CCUAGCC | -0.861
UCACGAU | -0.555
AUUGCGA | -0.0488
CGCGUCU | -0.617
AAAGUGG | 2.41
CUAGCCC | -0.839
UCUUCGC | -0.737
GUUACGG | 0.851
CAUGAUU | -0.672
CCUUAUA | -0.934
GGGAGAC | 2.08
AGAGCGC | -0.657
CUCGCUC | -0.694
CAUCUAC | -0.857
UCGGGAG | 1.18
CUCAUUU | -1.06
GGCGUGA | 1.34
CUUCUUC | -0.854
UCCCAAC | -0.664
UUGGCCU | -0.602
UGGCUCA | -0.275
UAAAUUU | -0.69
